In PubChem BioAssay AID445 (National Center for Advancing Translational Sciences (NCATS), 2006):
Among all 110,000 compounds or so, about 40 (0.04%) were called active. The shares of active, inactive and inconclusive entries below differ from those in the screen. The call rests on the fitted dose curve; in most records, active means well fitted curve in the direction sought with a large enough effect in the signal ratio (not every such curve was filed as active); inconclusive means small, poorly fitted or top-dose-only effect, or a change in a side signal; inactive means flat fitted curve, though single readings scatter; the % refers to the signal ratio. Potencies of inconclusive entries are doubtful fits and often do not repeat.

Assay: IkB Signaling;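 on IkBa stabilization activation: 0% = basal untreated cells and 100% = reference inhibitor full response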
Conditions: ABC-DLBCL IkBa-CBG/CBR dual luciferase ratio (green luciferase fused to IkBa over red control in OCI-Ly3 lymphoma cells), 4 h; IkBa stabilization activation: at 57.1 µM (top of the series), scaled: untreated 0%, proteasome inhibitor 100% unless noted
Method in brief: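 Curves were fitted separately to fusion (green), unfused (red) and ratio luminescence, then classed by r2, magnitude and activity. Cells: OCI-Ly3, 4 h compound plus doxycycline at 37C; 10 uM MG-132 defined full response.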
Potency means the concentration at half of the fitted maximal effect.

Structure (SMILES) | Potency | IkBa stabilization activation
CCOC(=O)c1csc(Nc2nc3ccc(F)cc3s2)n1 | inconclusive: 6.31 µM [rising, partial curve] | –
CCc1cc(Br)ccc1N1C(=O)C2CC=CCC2C1=O (stereo not given) | – | inactive
CCn1c(=N)c(C(=O)NC2CCCC2)cc2c(=O)n3cc(C)ccc3nc21 | – | inactive
CCOC(=O)c1c(-c2ccccc2)oc2cc(Br)c(OCc3ccccc3)cc12 | – | inactive
CCn1c(CSc2nc3ccccc3s2)nnc1SCC(=O)c1ccc2c(c1)OCCO2 | – | inconclusive: 4.79% [signal inhibitor]
Cc1ccc(NC(=O)C2CCCN(S(=O)(=O)c3cccc4nsnc34)C2)c(C)c1 (stereo not given) | – | inconclusive: -0.907% [signal inhibitor]
CCOc1ccc(C(=O)NCCc2csc(-c3cccnc3)n2)cc1 | – | inconclusive: 1.76% [signal inhibitor]
CCN(CC)S(=O)(=O)c1ccc2c(c1)N(CC(=O)NCCCN1CCN(c3cc(C)ccc3C)CC1)C(=O)CO2 | – | inconclusive: 0.609% [signal inhibitor]
CN1CCN(C2(CNC(=O)COc3ccc(C(C)(C)C)cc3)CCCCC2)CC1 | – | inconclusive: 0.0453% [signal inhibitor]
Cc1ccc(Cl)cc1Nc1nn2c(=O)c3ccc(C(=O)NC4CCC(C)CC4)cc3nc2s1 (stereo not given) | – | inactive
O=C(Cn1c(=O)n(-c2ccc(F)c(Cl)c2)c(=O)c2sc3ccccc3c21)NC1CCCCC1 | – | inconclusive: 4.94% [signal inhibitor]
CCC(C)S(=O)(=O)c1oc(-c2ccc(F)cc2)nc1S(=O)(=O)c1ccc(F)cc1 (stereo not given) | – | inconclusive: -3.24% [signal inhibitor]
COc1ccc(CNc2ncnc3ccc(-c4c(C)noc4C)cc23)c(OC)c1 | inconclusive: 1.58 µM [rising, partial curve] | –
N#Cc1cccc(NC(=O)N2CCCC3(CCN(C(=O)c4ccncc4)CC3)C2)c1 | – | inactive: -1.04% [at 11.4 µM, scaled: untreated 0%, proteasome inhibitor 100%]
OC(CNCc1ccco1)Cn1c2ccccc2c2ccccc21 (stereo not given) | – | inconclusive: 12% [signal inhibitor]
CCOc1ccc(-n2nc3ccc(NC(=O)COc4ccccc4)cc3n2)cc1 | – | inactive
CC(=O)c1ccc(S(=O)(=O)N2CCn3cccc3C2c2ccc(F)c(F)c2)cc1 (stereo not given) | – | inconclusive: 2.91% [signal inhibitor]
COc1ccc(CNc2ncnc3ccc(-c4cccc(C#N)c4)cc23)c(OC)c1 | – | inactive: -4.38% [at 11.4 µM, scaled: untreated 0%, proteasome inhibitor 100%]
CN(C)C(=O)C(CCN1CCC(O)(c2ccc(Cl)cc2)CC1)(c1ccccc1)c1ccccc1 | – | inconclusive: 0.572% [signal inhibitor]
CC(C)Oc1ccc(CNC(=O)c2ccc3c(c2)N(C)C(=O)C2CCCCN32)cc1 (stereo not given) | – | inconclusive: 13.3% [signal inhibitor]
Cc1nn(-c2nnc(C)c(=O)[nH]2)c(C)c1SCC(=O)Nc1ccc(F)cc1 | – | inconclusive: 17.7% [signal inhibitor]
Nc1nc(CSc2ccccn2)nc(Nc2ccccc2)n1 | – | inactive
Cc1ccc(N2CC(NC(=O)C3CCCC3)CC2=O)cc1C (stereo not given) | – | inconclusive: 4.89% [signal inhibitor]
O=C(COc1ccccc1Cl)Nc1nc(-c2ccc(F)cc2)ns1 | – | inconclusive: 1.34% [signal inhibitor]

Structure (SMILES) | Potency | IkBa stabilization activation
CCN1CCN(c2cc(C)c3cc(NC(=O)/C=C/c4ccc(OCCC(C)C)cc4)ccc3n2)CC1 | – | inconclusive: 1.89% [signal inhibitor]
O=C(CSc1nccn1-c1ccc(F)cc1)Nc1cccc2ccccc12 | – | inconclusive: 3.56% [signal inhibitor]
CCc1nnc(SCc2nc(-c3cccc(C)c3)oc2C)c2cc3sc(C)cc3n12 | – | inconclusive: -1.97% [signal inhibitor]
O=C(CSc1nnc(C2COc3ccccc3O2)o1)NC1CCCCC1 (stereo not given) | – | inactive
O=C(CCN1Cc2ccccc2C1)c1ccc2c(c1)OCCO2 | – | inconclusive: 4.18% [signal inhibitor]
O=C(CSc1nc2ccsc2c(=O)n1-c1ccc(Br)cc1)NCc1ccc(Cl)cc1 | – | inactive
COc1cccc(-c2nc(CS(=O)(=O)CC(=O)Nc3ccc(C)c(Cl)c3)c(C)o2)c1 | – | inactive
COc1ccc(CCNC(=O)Cc2ccc(NC(=O)N3CCSc4ncccc43)cc2)cc1OC | – | inconclusive: 3.03% [signal inhibitor]
Nc1nc(CSc2n[nH]c(-c3ccccc3)n2)nc(Nc2ccccc2)n1 | – | inconclusive: -2.23% [signal inhibitor]
O=C(Cn1c(=O)n(Cc2ccc(F)cc2)c(=O)c2sc3ccccc3c21)Nc1ccc(F)cc1F | – | inconclusive: 2.49% [signal inhibitor]
CN(Cc1ccc(-n2cccn2)cc1)C(=O)c1cnn2c1NC(c1ccco1)CC2C(F)(F)F (stereo not given) | – | inconclusive: 3.34% [signal inhibitor]
COc1ccc(C(=O)N2CCN(c3nc4c(OC)cccc4s3)CC2)cc1OC | – | inconclusive: 1.97% [signal inhibitor]
COc1cccc(CNC(=O)Cn2cccc2C(=O)c2ccccc2)c1 | – | inconclusive: 4.09% [signal inhibitor]
COc1ccc(-c2nc(-c3cccs3)c(-c3cccs3)[nH]2)cc1O | – | inconclusive: 4.29% [signal inhibitor]
O=C(COc1ccccc1)Nc1nc2ccccc2[nH]1 | – | inconclusive: 18.7% [signal inhibitor]
CC(C)COc1ccc(C(=O)N(Cc2cccc(F)c2)C2CCS(=O)(=O)C2)cc1 (stereo not given) | – | inconclusive: 1.88% [signal inhibitor]
CCOc1ccc(S(=O)(=O)NCc2cccn2Cc2cccc(C)c2)cc1 | – | inconclusive: 2.83% [signal inhibitor]
CCOC(=O)Cc1nnc(NC(=O)C(CC)Sc2nncn2C)s1 (stereo not given) | – | inactive
CCc1cccc(C)c1NC(=O)C(NS(=O)(=O)c1ccc2c(c1)CCC(=O)N2)c1ccccc1 (stereo not given) | – | inconclusive: 1.22% [signal inhibitor]
Cc1ccc(C)c(N2CCN(C(c3ccccc3)c3nnc(-c4ccccc4)o3)CC2)c1 (stereo not given) | – | inconclusive: 3.67% [signal inhibitor]
COc1cccc(Cn2c(=O)c(-c3cccs3)nc3cncnc32)c1 | – | inactive: -0.241% [at 11.4 µM, scaled: untreated 0%, proteasome inhibitor 100%]
Cc1ccc(NS(=O)(=O)c2c(C)nc3sc(C)c(C)n3c2=O)cc1F | – | inconclusive: -2.38% [signal inhibitor]
CCOC(=O)CNC(=O)c1cnn2cccnc12 | – | inactive
Cc1ccc2onc(CNC(=O)N3CCN(c4cc(Cl)ccc4C)CC3)c2c1 | – | inactive

Structure (SMILES) | Potency | IkBa stabilization activation
COC(=O)c1cc2sc(Cl)cc2n1CC(=O)N1CCCc2ccccc21 | – | inconclusive: 0.339% [signal inhibitor]
COc1ccc(-c2nc3cnc(N4CCOCC4)nc3n(Cc3cccs3)c2=O)cc1 | – | inactive: 0.811% [at 11.4 µM, scaled: untreated 0%, proteasome inhibitor 100%]
CC(C)OC(=O)c1ccc(NC(=O)CSc2nc(-c3cccs3)cc(C(F)(F)F)n2)cc1 | – | inconclusive: -0.398% [signal inhibitor]
Cc1ccc(C(=O)C2CCN(CC(=O)Nc3ccc(N(C)C)cc3)CC2)cc1 | – | inactive
COc1ccccc1N1CCN(CCN2C(=O)c3ccccc3C(C)(C)C2=O)CC1 | – | inconclusive: 1.13% [signal inhibitor]
COc1cc(N=Nc2cccc(S(N)(=O)=O)c2)c2ccccc2c1N | – | inactive: 7.65% [at 11.4 µM, scaled: untreated 0%, proteasome inhibitor 100%]
N#Cc1cc2ccccc2nc1SCC(=O)Nc1ccc(S(=O)(=O)N2CCCC2)cc1 | – | inactive
Cc1oc(/N=C/c2ccccc2O)c(C#N)c1C | – | inactive
Cc1cc(C)n(-c2nc3ccccc3nc2N2CCN(C(=O)c3ccc(F)cc3)CC2)n1 | – | inactive
COc1ccc(NC(=O)CSCc2cc(=O)c3cc(Cl)ccc3[nH]2)cc1 | – | inconclusive: -0.0532% [signal inhibitor]
Cc1ccc(N2CC(NC(=O)C3CCCCC3)CC2=O)cc1 (stereo not given) | – | inconclusive: -0.567% [signal inhibitor]
CCn1c(CNC(=O)c2ccc(OC)cc2)nnc1SCC(=O)Nc1ccc(F)cc1 | – | inactive
CCc1ccc(C(=O)c2cn(CC(=O)Nc3ccc(F)cc3)c3ccc(F)cc3c2=O)cc1 | – | inconclusive: 2.06% [signal inhibitor]
Cc1cccc(C(=O)Nc2cc(-c3ccccc3F)nn2-c2ccccc2)c1 | – | inconclusive: 1.9% [signal inhibitor]
COC(=O)c1c(NC(=O)c2cc(=O)c3cc(C)cc(C)c3o2)sc2c1CCC2 | – | inactive
COc1ccccc1NC(=O)c1cc2cc3ccc(OC)c(Cl)c3nc2s1 | – | inactive
Cc1ccc(CC(=O)NCc2nc(-c3ccccc3)no2)cc1 | – | inconclusive: 3.55% [signal inhibitor]
O=C(NCCc1ccccc1Cl)c1cc2ccccn2n1 | inconclusive: 31.6 µM [signal inhibitor, single point] | –
Cc1cc(SCC(=O)Nc2ccc(F)cc2F)nc(=O)[nH]1 | – | inconclusive: 5.73% [signal activator]
CC(C)(C)NC(=O)c1ccccc1-c1nc(-c2ccccc2Cl)no1 | – | inactive
COc1ccc2ncc3c(-c4ccc(C)c(C)c4)nn(CC(=O)Nc4ccccc4)c3c2c1 | – | inactive
CC1CCCC(NC(=O)COC(=O)Cc2cn3ccsc3n2)C1C (stereo not given) | – | inactive
